These are yes or no findings as the source states them, for the method shown. In cells and extracts the contact can be indirect. Some binding calls cover weakened binding; strength is not graded here.
What was measured:
FLAG-WASp = FLAG-WASp (UniProt P42768); assay: co-IP; 293T cells co-transfected, lysed after 48 hours in lysis buffer (25 mM HEPES, 150 mM NaCl, 1% NP40, pH 8.0); immunoprecipitation with anti-FLAG or anti-myc agarose and Protein G Sepharose at 4°C, six washes; western blotting
myc-FLAG-N-WASp = myc-FLAG-N-WASp (UniProt O00401); assay: as above
FLAG-WASp Q297* = FLAG-WASp Q297* (UniProt P42768); assay: as above
FLAG-WASp K232* = FLAG-WASp K232* (UniProt P42768); assay: as above
myc-DGKα = myc-DGKα (UniProt P23743); assay: as above
GST-DGKα = GST-DGKα (UniProt P23743); assay: pull-down; 293T cells co-transfected with GST-DGKα constructs and FLAG-WASp; glutathione beads pulled down the GST fusion from lysate (the legend says anti-GST antibody); western blotting
GST-DGKα E86* = GST-DGKα E86* (UniProt P23743); assay: as above
[1] = biological target: WASp (endogenous, human PBLs) (human (endogenous in PBLs)) (UniProt P42768); assay: proximity ligation; endogenous DGKα and WASp in isolated human PBLs on poly-L-lysine glasses, unstimulated or stimulated 15 minutes with anti-CD3 (UCHT1 10 μg/ml) and anti-CD28 (CD28.2 5 μg/ml), fixed and permeabilized; Duolink PLA, spots per cell counted

The chains behind the UniProt entries cited, without tags or fusion partners. Where a name states a change or a piece, a line headed by the entry shows the natural chain unless it says otherwise. Residues count along the entry.
UniProt P42768: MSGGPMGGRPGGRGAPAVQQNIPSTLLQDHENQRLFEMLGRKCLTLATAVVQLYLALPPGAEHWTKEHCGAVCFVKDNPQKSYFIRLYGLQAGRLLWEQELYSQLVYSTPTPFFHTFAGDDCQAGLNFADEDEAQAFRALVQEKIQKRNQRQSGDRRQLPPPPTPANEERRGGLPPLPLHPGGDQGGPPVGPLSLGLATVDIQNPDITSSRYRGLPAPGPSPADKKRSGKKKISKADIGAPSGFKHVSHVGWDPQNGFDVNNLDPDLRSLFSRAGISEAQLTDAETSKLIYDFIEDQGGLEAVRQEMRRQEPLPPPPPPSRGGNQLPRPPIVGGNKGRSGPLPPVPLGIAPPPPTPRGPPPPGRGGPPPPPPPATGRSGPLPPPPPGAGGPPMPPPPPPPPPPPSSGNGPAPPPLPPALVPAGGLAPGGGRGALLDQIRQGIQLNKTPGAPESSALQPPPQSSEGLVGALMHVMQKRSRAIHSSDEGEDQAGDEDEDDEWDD
FLAG-WASp Q297*: residues 1-296 of P42768
FLAG-WASp K232*: residues 1-231 of P42768
UniProt O00401: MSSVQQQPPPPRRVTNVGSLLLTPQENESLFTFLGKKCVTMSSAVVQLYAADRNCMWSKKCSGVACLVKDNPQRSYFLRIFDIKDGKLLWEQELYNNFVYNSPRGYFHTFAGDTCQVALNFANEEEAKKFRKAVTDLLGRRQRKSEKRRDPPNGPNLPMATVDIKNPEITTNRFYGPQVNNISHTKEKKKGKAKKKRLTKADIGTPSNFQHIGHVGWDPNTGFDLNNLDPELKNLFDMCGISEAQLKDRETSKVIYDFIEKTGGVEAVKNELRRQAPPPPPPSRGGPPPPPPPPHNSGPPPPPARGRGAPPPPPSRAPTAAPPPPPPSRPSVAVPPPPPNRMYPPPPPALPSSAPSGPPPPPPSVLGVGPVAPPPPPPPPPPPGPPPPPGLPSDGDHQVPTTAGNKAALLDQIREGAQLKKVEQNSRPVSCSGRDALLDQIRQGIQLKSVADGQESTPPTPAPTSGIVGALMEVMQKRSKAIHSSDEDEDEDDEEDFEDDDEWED
UniProt P23743: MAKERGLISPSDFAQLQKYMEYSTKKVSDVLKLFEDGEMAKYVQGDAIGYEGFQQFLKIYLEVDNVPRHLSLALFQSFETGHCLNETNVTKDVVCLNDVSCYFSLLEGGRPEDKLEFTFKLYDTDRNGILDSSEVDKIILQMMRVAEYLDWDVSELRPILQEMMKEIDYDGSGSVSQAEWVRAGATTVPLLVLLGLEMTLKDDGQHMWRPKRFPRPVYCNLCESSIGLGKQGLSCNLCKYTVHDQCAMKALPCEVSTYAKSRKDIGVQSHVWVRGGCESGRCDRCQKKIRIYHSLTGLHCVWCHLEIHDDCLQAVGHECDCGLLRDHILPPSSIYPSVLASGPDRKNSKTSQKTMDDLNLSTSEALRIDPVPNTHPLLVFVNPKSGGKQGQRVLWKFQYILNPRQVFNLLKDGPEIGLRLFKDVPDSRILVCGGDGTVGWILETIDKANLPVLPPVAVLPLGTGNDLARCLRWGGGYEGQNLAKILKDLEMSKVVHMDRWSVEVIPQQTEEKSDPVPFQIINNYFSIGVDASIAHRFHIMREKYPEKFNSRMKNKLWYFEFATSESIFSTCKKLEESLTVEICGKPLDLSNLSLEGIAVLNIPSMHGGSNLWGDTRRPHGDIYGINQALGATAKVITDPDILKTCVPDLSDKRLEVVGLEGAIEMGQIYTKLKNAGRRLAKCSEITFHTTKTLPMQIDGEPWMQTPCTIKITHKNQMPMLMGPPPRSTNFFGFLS
GST-DGKα E86*: residues 1-85 of P23743
UniProt P49619: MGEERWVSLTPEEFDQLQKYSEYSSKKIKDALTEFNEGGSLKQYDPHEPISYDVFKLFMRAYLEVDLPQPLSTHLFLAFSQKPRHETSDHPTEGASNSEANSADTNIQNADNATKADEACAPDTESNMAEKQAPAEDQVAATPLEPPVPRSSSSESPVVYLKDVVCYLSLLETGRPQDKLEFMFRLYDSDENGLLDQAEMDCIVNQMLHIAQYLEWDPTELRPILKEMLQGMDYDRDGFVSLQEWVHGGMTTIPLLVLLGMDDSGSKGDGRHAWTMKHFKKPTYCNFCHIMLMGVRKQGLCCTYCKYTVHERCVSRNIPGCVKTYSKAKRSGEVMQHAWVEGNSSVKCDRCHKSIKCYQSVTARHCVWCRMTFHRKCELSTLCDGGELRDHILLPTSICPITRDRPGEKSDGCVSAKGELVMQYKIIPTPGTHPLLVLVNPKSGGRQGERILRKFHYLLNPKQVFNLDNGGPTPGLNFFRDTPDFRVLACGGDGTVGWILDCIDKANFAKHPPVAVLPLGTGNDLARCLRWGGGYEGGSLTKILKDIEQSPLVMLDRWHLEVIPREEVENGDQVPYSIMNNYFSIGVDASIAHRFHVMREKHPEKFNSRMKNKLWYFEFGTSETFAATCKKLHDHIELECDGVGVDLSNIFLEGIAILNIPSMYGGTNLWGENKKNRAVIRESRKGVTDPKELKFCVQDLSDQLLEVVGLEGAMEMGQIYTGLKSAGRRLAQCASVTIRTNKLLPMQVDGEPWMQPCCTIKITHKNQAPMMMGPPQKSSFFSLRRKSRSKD

With “myc-DGKα (from UniProt P23743 1-735) (enzyme)” the binding (FLAG-WASp) was “binds”, the binding (myc-FLAG-N-WASp) was “no binding” and the binding (FLAG-WASp Q297*) was “binds”. For the same substance, the binding (FLAG-WASp K232*) was “binds”.

In the case of “myc-DGKα-L360* (from UniProt P23743 1-359) (domain or fragment)”, the binding (FLAG-WASp) is reported as “binds”.

In the case of FLAG-WASp (from UniProt P42768 1-502), the binding (myc-DGKα) is reported as “binds”, the binding (GST-DGKα) is reported as “binds” and the binding (GST-DGKα E86*) is reported as “binds”.

For “HA-DGKγ (from UniProt P49619 1-791) (enzyme)”, the binding (FLAG-WASp) was “no binding”.

With “DGKα (endogenous, human PBLs) (from UniProt P23743 1-735) (enzyme)” the binding [1] was “binds”.
